Results as given in article PMC4336329 (PLoS ONE, 2015).
In all, about 310,000 compounds went through this assay and about 2,200 (0.71%) showed an effect of 50% or more. The effect is printed as a negative number. The list shows a part of the results.

target: human ether-à-go-go-related gene (hERG) potassium channel (human, UniProt Q12809); assay: primary screen, population patch clamp on CHO cells stably expressing hERG
Sequence (Q12809 whole entry, looked up): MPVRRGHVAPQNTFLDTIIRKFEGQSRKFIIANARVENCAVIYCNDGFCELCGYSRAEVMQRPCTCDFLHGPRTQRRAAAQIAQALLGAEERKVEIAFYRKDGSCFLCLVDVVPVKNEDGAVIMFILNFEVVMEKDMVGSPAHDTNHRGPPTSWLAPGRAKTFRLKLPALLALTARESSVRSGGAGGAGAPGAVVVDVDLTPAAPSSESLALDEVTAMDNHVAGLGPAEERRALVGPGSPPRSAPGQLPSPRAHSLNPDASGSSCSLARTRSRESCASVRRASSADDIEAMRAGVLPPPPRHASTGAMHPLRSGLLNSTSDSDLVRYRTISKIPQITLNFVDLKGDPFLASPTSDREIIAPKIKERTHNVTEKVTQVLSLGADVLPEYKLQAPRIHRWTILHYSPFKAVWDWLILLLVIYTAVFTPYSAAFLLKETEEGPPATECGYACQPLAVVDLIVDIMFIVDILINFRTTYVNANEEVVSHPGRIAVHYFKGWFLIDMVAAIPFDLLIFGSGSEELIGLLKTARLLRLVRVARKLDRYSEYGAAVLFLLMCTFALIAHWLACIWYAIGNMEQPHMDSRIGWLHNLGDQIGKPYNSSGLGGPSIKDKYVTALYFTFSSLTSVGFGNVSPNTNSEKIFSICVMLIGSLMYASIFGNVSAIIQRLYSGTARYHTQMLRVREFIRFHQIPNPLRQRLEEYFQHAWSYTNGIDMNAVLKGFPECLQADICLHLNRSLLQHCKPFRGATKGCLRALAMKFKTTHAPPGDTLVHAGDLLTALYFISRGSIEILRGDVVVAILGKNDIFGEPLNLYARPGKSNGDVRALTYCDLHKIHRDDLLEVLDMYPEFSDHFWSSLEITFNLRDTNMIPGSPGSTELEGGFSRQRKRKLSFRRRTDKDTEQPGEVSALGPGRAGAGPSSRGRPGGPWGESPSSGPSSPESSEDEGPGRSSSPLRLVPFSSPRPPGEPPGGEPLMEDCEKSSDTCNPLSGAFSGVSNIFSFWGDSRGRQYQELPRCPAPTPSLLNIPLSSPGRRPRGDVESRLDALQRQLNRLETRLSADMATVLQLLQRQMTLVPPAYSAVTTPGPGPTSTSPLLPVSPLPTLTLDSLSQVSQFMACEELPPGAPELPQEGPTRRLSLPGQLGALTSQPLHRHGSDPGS

| SMILES | hERG current change (%, negative = inhibition) at 1uM |
| --- | --- |
| Cc1ccccc1OCC(=O)NNC(=O)c1ccoc1C | 6.46% |
| CCCN(CCC)CCCNC(=O)C1CCN(S(=O)(=O)c2cccc3nsnc23)CC1 | 12.5% |
| Clc1ccc(Oc2cnns2)cc1Cl | 9.79% |
| O=c1oc2c(O)cccc2cc1-c1nc2ccccc2[nH]1 | 12% |
| CCOc1ccc(NC(=O)CNC(=O)c2ccco2)cc1 | 20.2% |
| Cc1ccc(NC(=O)c2ccc3nsnc3c2)c(C)c1 | 12.2% |
| C/C(=N\NC(=O)CSCc1ccc([N+](=O)[O-])cc1)c1ccccc1 | 8.06% |
| COc1ccc2ccccc2c1CN(C)Cc1ccccc1.O=C(O)C(=O)O | 4.87% |
| COC(=O)c1nc(N)sc1C | 9.62% |
| Cc1cc(C)c(S(=O)(=O)N2CCCC(C(=O)NC3CC3)C2)c(C)c1 (stereo not drawn) | -24.5% |
| COC(=O)c1ccc(N2CCN(C)CC2)c(NC(=O)c2ccc(-c3ccc(Cl)cc3)o2)c1 | 7.15% |
| CCN(CC)S(=O)(=O)c1cccc(-c2nnc(SCc3nc4ccccc4s3)o2)c1 | 5.17% |
| CCCc1cc(=O)[nH]c(SCc2nc3ccccc3s2)n1 | 8.57% |
| O=C(Cn1cnc(S(=O)(=O)N2CCCC2)c1)Nc1ccccc1 | 12.6% |
| Cc1ccc2oc(C(=O)Nc3cc(C)on3)c(C)c2c1 | 0.256% |
| COc1cc(NC(=O)c2ccc(C)cc2)c(OC)cc1NC(=O)CN1CCOCC1 | 10.9% |
| COc1cc([N+](=O)[O-])ccc1NC(=O)CSc1nncn1-c1cccnc1 | 4.81% |
| O=c1oc(-c2cccc(Cl)c2)nc2c1cnn2-c1ccccc1 | 11.1% |
| O=c1oc2ccccc2c(N2CCC(c3ccccc3)CC2)c1[N+](=O)[O-] | 7.13% |

| SMILES | hERG current change (%, negative = inhibition) at 1uM |
| --- | --- |
| CC(C)c1ccc(/C=C/C(=O)Nc2nc3ccc([N+](=O)[O-])cc3s2)cc1 | -4.72% |
| CCOC(=O)c1c(C)c(P(=S)(N2CCOCC2)N2CCOCC2)n(C)c1C | 0.622% |
| Cc1cnc(C(=O)NC(Cc2ccccc2)c2ccccc2)cn1 (stereo not drawn) | 10.5% |
| Cn1c(=O)nc2n(Cc3ccccc3)c3ccccc3cc-2c1=O | 9.33% |
| O=C(CCN1CCN(c2ccccc2)CC1)NNC(=O)Cc1ccccc1Cl | 14.2% |
| C[C@]12CC[C@H]3C(CCC4(O)CC(O)CC[C@]34C=O)C1=CC[C@H]2c1ccc(=O)oc1 (stereo partly drawn) | 15.7% |
| O=S(=O)(Nc1cc(Cl)cc(Cl)c1)N1CCOCC1 | 13% |
| O=C(CN1C(=O)NC2(CCCCCC2)C1=O)NCCc1ccc(F)cc1 | -0.0593% |
| O=C(NC1CC1)C1CCN(C2CCN(C(=O)/C=C/c3cccs3)CC2)CC1 | -4.6% |
| COc1ccc(Cn2ccnc2)cc1[N+](=O)[O-] | -3.67% |
| COCCSc1nnc(NC(=O)C2CC(=O)N(C3CCCC3)C2)s1 (stereo not drawn) | 16% |
| CCc1c(C)sc(NC(=S)N2CCN(CC)CC2)c1C(=O)OC | 14.1% |
| COc1ccc(NC(=O)NNC(=O)COc2cc(C)c(Cl)c(C)c2)c(OC)c1 | 15.4% |
| NS(=O)(=O)c1ccc(NC(=O)COC(=O)C2CC(=O)N(Cc3ccccc3)C2)cc1 (stereo not drawn) | 25.2% |
| Cc1cc(C(=O)N2CCCC(Nc3ccc(F)cc3)C2)n(C)n1 (stereo not drawn) | 18.9% |
| CN(C)S(=O)(=O)c1ccc(Cl)c(C(=O)OCC(=O)NC(=O)NC2CCCC2)c1 | 18.2% |
| N#C/C(=C/c1ccc(-c2ccccc2[N+](=O)[O-])o1)C(N)=O | 18.6% |
| Cc1ccc(S(=O)(=O)c2nc(S(=O)(=O)c3ccc(C)cc3)c(N3CCN(CCO)CC3)s2)cc1 | -0.188% |
| Cc1nc2n[nH]c(N)c2c2c1COC(C)(C)C2 | -8.72% |

| SMILES | hERG current change (%, negative = inhibition) at 1uM |
| --- | --- |
| COc1ccc2[nH]c(=O)c(CN(Cc3nnnn3Cc3ccco3)C3CCCCC3)cc2c1 | 9.9% |
| COc1cc(C2C(C#N)=C(N)OC3=C2C(=O)CC(C)(C)C3)cc([N+](=O)[O-])c1O (stereo not drawn) | 4.65% |
| CCn1c(=O)c2ccccc2n(Cc2ccccc2C)c1=O | 5.67% |
| Cn1ccc(NC(=O)Nc2cccc(C(F)(F)F)c2)n1 | 3.18% |
| CCN(CC)S(=O)(=O)c1ccc(Cl)c(NC(=O)c2ccncc2)c1 | -19.1% |
| Cc1cc(=O)oc2cc(OCC(=O)c3ccccc3)ccc12 | 14.7% |
| CC1(C)Cc2c(sc(NC(=O)Nc3ccccc3)c2C(N)=O)CO1 | 11.1% |
| Cc1ccc(OCC(=O)NCCCNC(=O)c2ccco2)cc1C | 7.48% |
| CC(NC(=O)c1ccc(C(C)(C)C)cc1)C(c1cccs1)N1CCOCC1 (stereo not drawn) | 4.6% |
| CC(C)c1nnc(NC(=O)CCC2CCCCC2)s1 | 16% |
| Cc1nnc(NC(=O)CN2CCN(Cc3ccc(F)cc3Cl)CC2)s1 | 9.56% |
| COc1cc2c(cc1O)CCN(C(=O)CSc1nncn1C)[C@@H]2C | 10.7% |
| CCN1CCN(C(=O)CCc2ccc(S(=O)(=O)NCCc3ccccc3)cc2)CC1 | 10.8% |
| CC(=O)Nc1ccc(NC(=O)c2ccccc2N(C)S(=O)(=O)c2ccccc2)cc1 | 19.2% |
| Cc1ccc(C(=O)CSC2=C(C#N)C(c3ccco3)C3=C(CCCC3=O)N2)cc1 (stereo not drawn) | -5.42% |
| COc1ccc2oc(C(=O)NN3C(C)CCCC3C)c(C)c2c1 (stereo not drawn) | 19% |
| COc1ccccc1CNC(=S)Nc1ccc(F)cc1 | 13.1% |
| Cc1ccc(NC(=O)CSc2nnc(-c3ccccn3)n2N)c(Br)c1 | -6.61% |
| Cc1ccc(S(=O)(=O)N2CCCCC2CCNC(=O)C(=O)NCc2cccnc2)cc1 (stereo not drawn) | 5.42% |
